According to the supplement of paper PMC9446081:
About 220 (0.56%) of roughly 39,000 compounds showed activity. This is one part of the list.

Each compound was assayed on Escherichia coli K-12 BW25113 (assay: relative growth (OD600 normalised to plate interquartile mean) (fraction); higher = less growth inhibition, active = 0.2 or less). Settings: 50 µM; LB; incubation time: overnight (16-24 h).
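Note: static incubation at 37 °C against the wild-type strain, values averaged over two biological replicates.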

SMILES | relative growth
C[C@@H]1CN([C@@H](C)CO)S(=O)(=O)c2ccc(C#C[C@@H](C)O)cc2O[C@@H]1CN(C)C(=O)Nc1ccccc1 | inactive: 0.98
C[C@H](CO)N1C[C@H](C)[C@@H](CN(C)Cc2ccc(Cl)c(Cl)c2)Oc2ccc(NC(=O)Nc3ccc4c(c3)OCO4)cc2CC1=O | inactive: 1.01
C[C@@H]1CCCCO[C@@H](CN(C)C(=O)Nc2ccccc2)[C@@H](C)CN([C@H](C)CO)C(=O)c2cc(NS(=O)(=O)c3cccs3)ccc2O1 | inactive: 0.875
O=C(c1cccnc1)N1C[C@@H]2[C@H](c3ccccc31)[C@@H](CO)N2C(=O)CN1CCOCC1 | inactive: 0.988
CC(=O)Nc1ccc(C(C)C)c(C)c1 | inactive: 0.952
COc1ccc(CN(C)C[C@H]2OCCCC[C@H](C)Oc3ccc(NC(=O)c4ccccc4)cc3C(=O)N([C@H](C)CO)C[C@H]2C)cc1 | inactive: 0.998
O=C(C[C@@H]1CC[C@H]2[C@@H](COC[C@@H](O)CN2C(=O)Nc2cccc(Cl)c2)O1)NCc1ccccc1F | inactive: 0.976
C[C@H]1CN([C@@H](C)CO)C(=O)Cc2cc(NS(C)(=O)=O)ccc2O[C@H]1CN(C)C(=O)Nc1ccc(F)cc1 | inactive: 1.04
CC(C)C#Cc1cnc2c(c1)C(=O)N([C@H](C)CO)C[C@@H](C)[C@H](CN(C)C(=O)c1ccc3c(c1)OCO3)O2 | inactive: 0.99
C[C@@H]1CN([C@H](C)CO)C(=O)c2c(c3ccccc3n2C)-c2ccccc2CO[C@@H]1CN(C)S(=O)(=O)c1ccc(C(F)(F)F)cc1 | inactive: 1.03
NNC(=O)CS(=O)(=O)c1ccc(Cl)cc1 | inactive: 0.989
Cc1ccc(N2C(=O)c3ccccc3[C@@H](C(=O)NCCN3CCOCC3)[C@@H]2c2ccc(CO)cc2)nc1 | inactive: 0.966
COCC(=O)Nc1ccc2c(c1)C(=O)N(C)C[C@H](OC)[C@@H](C)CN(Cc1cccc(F)c1)[C@H](C)CO2 | inactive: 0.987
C[C@H]1CN([C@@H](C)CO)C(=O)c2cccc(NS(C)(=O)=O)c2O[C@H]1CN(C)Cc1ccc2c(c1)OCO2 | inactive: 1.01
Cc1noc(C)c1S(=O)(=O)Nc1ccc2c(c1)C(=O)N([C@H](C)CO)C[C@@H](C)[C@H](CN(C)CC1CCCCC1)OCCCC[C@@H](C)O2 | inactive: 0.988
C[C@@H]1CCCCO[C@H](CN(C)Cc2ccccc2)[C@@H](C)CN([C@H](C)CO)C(=O)c2cc(NC(=O)Nc3cccc4ccccc34)ccc2O1 | inactive: 0.986
C[C@@H]1CN([C@@H](C)CO)C(=O)c2cc(NC(=O)CCC(F)(F)F)ccc2O[C@@H](C)CCCCO[C@@H]1CN(C)C(=O)Nc1ccc(C(F)(F)F)cc1 | inactive: 1.01
COc1ccc(NC(=O)N(C)C[C@H]2Oc3c(NC(=O)CCCCCC(=O)Nc4ccccc4N)cccc3C(=O)N([C@H](C)CO)C[C@H]2C)cc1 | inactive: 0.998
C=CCNC(=O)[C@H]1[C@@H]2C(=O)O[C@@H](c3ccccc3)[C@@H](c3ccccc3)N2[C@@H](c2ccc(OCCO)cc2)[C@]12C(=O)N(C(=O)OCCOC)c1ccc(C#CC3(O)CCCCCC3)cc12 | inactive: 1.01
C[C@H]1CN([C@H]2C[C@@H](O)[C@@H](CO)O2)C(=O)NC1=O | inactive: 0.958
COC(=O)C1=C(C)NC(C)=C(C(=O)NCCCN2CCC(c3ccccc3)(c3ccccc3)CC2)[C@@H]1c1ccc([N+](=O)[O-])cc1 | inactive: 0.941
C[C@@H]1CCCCO[C@@H](CN(C)C(=O)c2ccccc2)[C@@H](C)CN([C@H](C)CO)C(=O)c2cc(NC(=O)Nc3ccc4c(c3)OCO4)ccc2O1 | inactive: 1.01

SMILES | relative growth
CC(C)(c1cc(Br)c(O)c(Br)c1)c1cc(Br)c(O)c(Br)c1 | inactive: 0.959
Cn1c(=O)cc(N2CCCC(N)C2)n(Cc2ccccc2C#N)c1=O.O=C(O)c1ccccc1 (stereo not given) | inactive: 1.05
NCc1ccc(Br)s1 | inactive: 0.989
CCC(CC)c1ccc(O)cc1 | inactive: 0.994
C[C@H](CO)N1C[C@H](C)[C@H](CN(C)S(=O)(=O)c2ccc(F)cc2)Oc2ncc(Br)cc2C1=O | inactive: 0.985
C[C@@H]1CN([C@@H](C)CO)C(=O)c2cccc(NC(=O)c3ccncc3)c2O[C@H]1CN(C)C(=O)Nc1ccc2c(c1)OCO2 | inactive: 0.991
C[C@@H]1CN([C@H](C)CO)C(=O)CCCn2nncc2CO[C@@H]1CN(C)Cc1ccc2c(c1)OCCN2C | inactive: 0.994
C[C@@H]1CN([C@H](C)CO)C(=O)c2cc(NC(=O)Nc3cccc4ccccc34)ccc2O[C@@H]1CN(C)C(=O)Nc1ccc(F)cc1 | inactive: 0.999
CNC[C@@H]1OCCCC[C@@H](C)Oc2ccc(NC(=O)Nc3ccc(C(F)(F)F)cc3)cc2C(=O)N([C@@H](C)CO)C[C@H]1C | inactive: 0.965
O=C(O)C[C@H]1C=C[C@@H](NC(=O)c2ccncc2)[C@H](CO)O1 | inactive: 0.998
COc1cccc(C#Cc2ccc3c(c2)O[C@H](CN(C)C(C)=O)[C@@H](C)CN([C@H](C)CO)S3(=O)=O)c1 | inactive: 0.991
C=C1C(=O)C(O)[C@@H]2O[C@@H]2C1=O (stereo not given in full) | inactive: 0.582
CC(=O)N1CCC[C@H]1C(=O)O | inactive: 0.992
C[C@H]1CN([C@@H](C)CO)C(=O)c2cccc(NC(=O)C3CCOCC3)c2O[C@H]1CN(C)Cc1ccc2c(c1)OCO2 | inactive: 0.976
O=c1[nH]c(=O)n(C2CC(O)C(CO)O2)cc1I (stereo not given) | inactive: 1.06
Cc1ccc(OC(=O)N(C)C[C@H]2OCc3ccccc3-c3ccccc3C(=O)N([C@H](C)CO)C[C@H]2C)cc1 | inactive: 1.03
C[C@@H]1CN([C@@H](C)CO)C(=O)c2cc(NC(=O)Nc3cccc4ccccc34)ccc2O[C@@H](C)CCCCO[C@H]1CN(C)C(=O)NC1CCCCC1 | inactive: 1.03
CN1CCN(C(=O)C[C@@H]2CC[C@H]3[C@@H](COC[C@@H](O)CN3C(=O)C3CCOCC3)O2)CC1 | inactive: 0.997
O=C(C[C@@H]1CC[C@H]2[C@@H](COC[C@H](O)CN2CC2CCOCC2)O1)N1CCOCC1 | inactive: 1
O=C(C[C@@H]1CC[C@@H]2[C@H](COC[C@H](O)CN2Cc2cc(F)ccc2F)O1)N[C@@H]1CCN(Cc2ccccc2)C1 | inactive: 0.989
Cl.OC(c1cc(C(F)(F)F)nc2c(C(F)(F)F)cccc12)C1CCCCN1 (stereo not given) | inactive: 0.303
COc1ccc(S(=O)(=O)N(C)C[C@@H]2Oc3ccc(NC(=O)CCN4CCOCC4)cc3CC(=O)N([C@@H](C)CO)C[C@H]2C)cc1 | inactive: 0.983

SMILES | relative growth
CN(C)CCCCNC(=O)[C@@H]1C[C@@H]2C(=O)N[C@@H](CCCC[N+](C)(C)C)C(=O)N2[C@@H]1c1cccc(OCCO)c1 | inactive: 0.973
COc1ccccc1S(=O)(=O)N1C[C@@H](O)COC[C@@H]2O[C@H](CC(=O)O)CC[C@H]21 | inactive: 0.994
C[C@@H]1CN([C@@H](C)CO)C(=O)CCCn2cc(nn2)CO[C@H]1CN(C)C(=O)CCCN(C)C | inactive: 1.01
CCS(=O)(=O)NCC[C@H]1CC[C@H](NS(=O)(=O)c2cccc(F)c2)[C@@H](CO)O1 | inactive: 0.998
C[C@H]1CN([C@@H](C)CO)C(=O)c2c(c3ccccc3n2C)-c2ccccc2CO[C@H]1CN(C)C(=O)Nc1ccc(F)cc1 | inactive: 1.02
C[C@@H]1CN([C@@H](C)CO)C(=O)c2cc(NC(=O)NC3CCCCC3)ccc2O[C@H]1CN(C)C(=O)Nc1cccc2ccccc12 | inactive: 1.03
CN(Cc1ccccc1)C(=O)[C@H](Cc1ccc2ccccc2c1)NC(=O)[C@@H]1CCCN1C(=O)Nc1ccccc1[N+](=O)[O-] | inactive: 1.04
CC(C)NC(=O)N[C@H]1C=C[C@H](CC(=O)NCCN2CCCC2)O[C@@H]1CO | inactive: 1.01
Cc1noc(C)c1S(=O)(=O)Nc1ccc2c(c1)CC(=O)N([C@@H](C)CO)C[C@H](C)[C@@H](CN(C)S(=O)(=O)c1cccs1)O2 | inactive: 0.981
Cc1cc(C(=O)Nc2cccc3c2O[C@H](CN(C)Cc2ccncc2)[C@@H](C)CN([C@@H](C)CO)C3=O)n(C)n1 | inactive: 1.01
N#CC1(N[C@@H](Cc2ccccc2)c2ccccc2)CCCCCC1 | inactive: 1.02
COc1ccc(CN(C)C[C@@H]2OCCCC[C@@H](C)Oc3ccc(NS(=O)(=O)c4cccs4)cc3C(=O)N([C@H](C)CO)C[C@H]2C)cc1 | inactive: 0.997
C[C@@H]1CN([C@@H](C)CO)C(=O)Cc2cc(NC(=O)CCCN(C)C)ccc2O[C@H]1CN(C)C(=O)Nc1ccc(F)cc1 | inactive: 1.04
Cc1ccc(S(=O)(=O)N[C@@H]2CC[C@H](CC(=O)NCc3ccc(Cl)c(Cl)c3)O[C@@H]2CO)cc1 | inactive: 1.02
O=c1c(O)c(-c2ccc(O)cc2O)oc2cc(O)cc(O)c12 | inactive: 1.12
CC(=O)N[C@H]1CC[C@H](CCNC(=O)C2CC2)O[C@H]1CO | inactive: 0.987
C[C@H](CO)N1C[C@H](C)[C@H](CN(C)S(C)(=O)=O)Oc2ccc(NC(=O)Cc3cn(C)c4ccccc34)cc2CC1=O | inactive: 1.03
CCOC(=O)CC(=O)c1ccn(C)n1 | inactive: 0.998
COc1ccc(C2CNC(=O)C2)cc1OC1CCCC1 (stereo not given) | inactive: 1.06
O=C(Nc1ccc(F)cc1)N[C@@H]1C[C@@H]2O[C@@H](CO)CC[C@@H]2O[C@@H]1CCc1ccc(-c2ccccc2)cc1 | inactive: 1
C[C@H](CO)N1C[C@H](C)[C@H](CN(C)C(=O)c2ccccc2)OCCCC[C@H](C)Oc2ccc(NS(=O)(=O)c3ccccc3)cc2C1=O | inactive: 0.979
